Results reported in the supplement of paper PMC4967469.
Lines with a small IC50 respond at low doses; fits outside the tested doses are given as limits. AUC is the area under the same curve over the 256-fold range up to the top dose, as a fraction; the more sensitive the line, the further below 1. For part of these data: The top dose, if marked as inferred, comes from the curve model; the source does not state it.

Key:
Experiment in all cases: Viability of human cancer cell lines after 72 h of drug (GDSC screen)
XAV 939 = compound: Oc1nc(-c2ccc(C(F)(F)F)cc2)nc2c1CSCC2 [XAV 939]; conditions: top dose 5 µM; top dose inferred
Procedure: (§1)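 Human cancer cell lines in 384-well plates, medium with 10% serum, drug for 72 h over a 256-fold dose range (nine 2-fold or five 4-fold steps up to the top dose). Adherent lines were fixed and stained with the nucleic acid dye Syto60, suspension lines read with resazurin; signal relative to control wells, capped at 0 and 100%. One two-parameter sigmoid per drug and line, fitted in a mixed model over all curves with the slope shared within a line.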

NPK76-II-72-1 = compound: COc1cc(C(=O)NC2CCN(C)CC2)ccc1Nc1ncc2c(n1)N(C1CCCC1)C(C)CC(=O)N2C [NPK76-II-72-1]; conditions: top dose 10.24 µM; top dose inferred
Procedure: as §1

GSK-650394 = compound: O=C(O)c1ccc(-c2c[nH]c3ncc(-c4ccccc4)cc23)cc1C1CCCC1 [GSK-650394]; conditions: top dose 16 µM; top dose inferred
Procedure: as §1

Etoposide = compound: COc1cc([C@@H]2c3cc4c(cc3[C@@H](O[C@@H]3O[C@@H]5CO[C@@H](C)O[C@H]5[C@H](O)[C@H]3O)[C@H]3COC(=O)[C@H]23)OCO4)cc(OC)c1O [Etoposide]; conditions: top dose 16 µM
Procedure: as §1

Bexarotene = compound: C=C(c1ccc(C(=O)O)cc1)c1cc2c(cc1C)C(C)(C)CCC2(C)C [Bexarotene]; conditions: top dose 8 µM
Procedure: as §1

BMS-345541 = compound: Cc1ccc2nc(NCCN)c3ncc(C)n3c2c1 [BMS-345541]; conditions: top dose 16 µM
Procedure: as §1

YK 4-279 = compound: COc1ccc(C(=O)CC2(O)C(=O)Nc3c(Cl)ccc(Cl)c32)cc1 [YK 4-279]; conditions: top dose 10 µM
Procedure: as §1

AZD7762 = compound: NC(=O)Nc1cc(-c2cccc(F)c2)sc1C(=O)N[C@H]1CCCNC1 [AZD7762]; conditions: top dose 2 µM
Procedure: as §1

| Cell Line | AUC (XAV 939) | IC50 (XAV 939) [µM] | AUC (NPK76-II-72-1) | IC50 (NPK76-II-72-1) [µM] | AUC (GSK-650394) | IC50 (GSK-650394) [µM] | AUC (Etoposide) | IC50 (Etoposide) [µM] | AUC (Bexarotene) | IC50 (Bexarotene) [µM] | AUC (BMS-345541) | IC50 (BMS-345541) [µM] | AUC (YK 4-279) | IC50 (YK 4-279) [µM] | AUC (AZD7762) | IC50 (AZD7762) [µM] |
| --- | --- | --- | --- | --- | --- | --- | --- | --- | --- | --- | --- | --- | --- | --- | --- | --- |
| SiHa (cervix, adherent) | 0.931 | > 5 | 0.981 | > 10.2 | 0.987 | > 16 | 0.972 | > 16 | 0.969 | > 8 | 0.982 | > 16 | 0.86 | > 10 | 0.782 | 0.976 |
| T98G (glioma, adherent) | 0.98 | > 5 | 0.98 | > 10.2 | 0.948 | > 16 | 0.831 | 9.11 | 0.915 | > 8 | 0.936 | > 16 | 0.627 | 1.36 | 0.637 | 0.289 |
| T-T (oesophagus, adherent) | 0.983 | > 5 | 0.837 | 6.82 | 0.739 | 4.81 | 0.814 | 8.67 | 0.782 | 3.32 | 0.933 | > 16 | 0.693 | 2.17 | 0.741 | 0.607 |
| TE-1 (oesophagus, adherent) | 0.958 | > 5 | 0.977 | > 10.2 | 0.967 | > 16 | 0.805 | 10.7 | 0.92 | > 8 | 0.92 | > 16 | 0.597 | 1.24 | 0.821 | 1.57 |
| TE-5 (oesophagus, adherent) | 0.897 | > 5 | 0.975 | > 10.2 | 0.902 | > 16 | 0.547 | 1.37 | 0.891 | > 8 | 0.918 | > 16 | 0.717 | 2.85 | 0.831 | 1.54 |
| TE-6 (oesophagus, adherent) | 0.977 | > 5 | 0.985 | > 10.2 | 0.978 | > 16 | 0.906 | > 16 | 0.962 | > 8 | 0.911 | > 16 | 0.935 | > 10 | 0.922 | > 2 |
| TE-8 (oesophagus, adherent) | 0.917 | > 5 | 0.924 | > 10.2 | 0.615 | 2.12 | 0.766 | 6.3 | 0.902 | > 8 | 0.88 | > 16 | 0.599 | 1.19 | 0.826 | 1.33 |
| TE-9 (oesophagus, adherent) | 0.979 | > 5 | 0.983 | > 10.2 | 0.813 | 9.1 | 0.212 | 0.137 | 0.919 | > 8 | 0.962 | > 16 | 0.612 | 1.28 | 0.851 | – |
| TE-11 (oesophagus, adherent) | 0.962 | > 5 | 0.989 | > 10.2 | 0.893 | > 16 | 0.814 | 7.79 | 0.974 | > 8 | 0.955 | > 16 | 0.589 | 1.07 | 0.77 | 0.695 |
| TE-12 (oesophagus, suspension) | 0.972 | > 5 | 0.978 | > 10.2 | 0.614 | 2.2 | 0.857 | > 16 | 0.859 | > 8 | 0.834 | 13.8 | 0.938 | > 10 | 0.67 | 0.414 |
| TE-15 (oesophagus, suspension) | 0.962 | > 5 | 0.975 | > 10.2 | 0.692 | 3.74 | 0.551 | 1.4 | 0.939 | > 8 | 0.735 | 5.16 | 0.894 | > 10 | 0.718 | 0.567 |
| TGBC11TKB (stomach, adherent) | 0.981 | > 5 | 0.9 | > 10.2 | 0.95 | > 16 | 0.962 | > 16 | 0.988 | > 8 | 0.931 | > 16 | 0.763 | 3.2 | 0.59 | 0.214 |
| TGW (neuroblastoma, adherent) | 0.977 | > 5 | 0.795 | 4.02 | 0.938 | > 16 | 0.937 | > 16 | 0.992 | > 8 | 0.871 | 11.6 | 0.681 | 1.84 | 0.694 | 0.4 |
| TK (B-cell lymphoma, suspension) | 0.988 | > 5 | 0.64 | 1.5 | 0.983 | > 16 | 0.798 | 6.87 | 0.976 | > 8 | 0.876 | 13.5 | 0.479 | 0.552 | 0.475 | 0.107 |
| TOV-21G (ovary, adherent) | 0.957 | > 5 | 0.985 | > 10.2 | 0.983 | > 16 | 0.952 | > 16 | 0.984 | > 8 | 0.822 | 10.4 | 0.619 | 1.37 | 0.577 | 0.207 |
| TT2609-C02 (thyroid, adherent) | 0.985 | > 5 | 0.986 | > 10.2 | 0.744 | 5.27 | 0.373 | 0.436 | 0.915 | > 8 | 0.841 | 12.3 | 0.89 | > 10 | 0.729 | 0.59 |
